Assay results reported in PMC4336329 (PLoS ONE, 2015).
The whole screen tested about 310,000 compounds, of which about 2,200 (0.71%) showed an effect of 50% or more. Effects have a minus sign here. The list shows a part of the results.

The compounds below were run against human ether-à-go-go-related gene (hERG) potassium channel (human, UniProt Q12809) (assay: primary screen, population patch clamp on CHO cells stably expressing hERG).
Chain of human ether-à-go-go-related gene (hERG) potassium channel (Q12809 whole entry, looked up): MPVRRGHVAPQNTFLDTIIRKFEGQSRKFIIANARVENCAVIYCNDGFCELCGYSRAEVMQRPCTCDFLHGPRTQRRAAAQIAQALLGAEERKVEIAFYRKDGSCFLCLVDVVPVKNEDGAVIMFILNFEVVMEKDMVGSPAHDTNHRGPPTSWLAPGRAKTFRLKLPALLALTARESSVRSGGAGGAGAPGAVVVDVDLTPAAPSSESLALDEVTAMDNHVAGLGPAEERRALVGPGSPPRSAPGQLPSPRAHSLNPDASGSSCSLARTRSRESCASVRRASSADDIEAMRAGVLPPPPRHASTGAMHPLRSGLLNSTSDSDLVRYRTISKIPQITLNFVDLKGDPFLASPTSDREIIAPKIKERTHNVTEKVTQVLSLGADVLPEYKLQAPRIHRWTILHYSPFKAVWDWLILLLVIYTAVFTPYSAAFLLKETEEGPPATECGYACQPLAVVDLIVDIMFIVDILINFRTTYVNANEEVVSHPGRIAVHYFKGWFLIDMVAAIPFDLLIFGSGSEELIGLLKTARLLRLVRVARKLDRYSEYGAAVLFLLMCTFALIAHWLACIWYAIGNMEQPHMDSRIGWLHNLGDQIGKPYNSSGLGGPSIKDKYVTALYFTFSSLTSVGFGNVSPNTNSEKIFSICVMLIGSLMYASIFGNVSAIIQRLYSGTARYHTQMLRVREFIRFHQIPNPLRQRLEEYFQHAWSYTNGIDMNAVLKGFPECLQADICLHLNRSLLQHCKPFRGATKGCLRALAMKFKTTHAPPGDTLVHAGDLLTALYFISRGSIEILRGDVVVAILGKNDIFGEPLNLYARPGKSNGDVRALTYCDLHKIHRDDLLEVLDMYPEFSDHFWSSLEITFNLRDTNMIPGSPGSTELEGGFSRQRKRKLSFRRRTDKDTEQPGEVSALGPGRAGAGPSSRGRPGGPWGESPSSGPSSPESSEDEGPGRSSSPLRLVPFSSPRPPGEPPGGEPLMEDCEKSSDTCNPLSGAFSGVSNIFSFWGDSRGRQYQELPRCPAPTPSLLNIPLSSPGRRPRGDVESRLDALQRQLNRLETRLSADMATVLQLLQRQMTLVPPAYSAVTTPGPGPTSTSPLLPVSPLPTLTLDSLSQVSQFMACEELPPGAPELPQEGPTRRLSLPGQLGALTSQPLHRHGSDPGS

| Structure (SMILES) | hERG current change (%, negative = inhibition) at 1uM [%] |
| --- | --- |
| COc1cccc(-c2ncc3ccccc3c2COC(=O)c2ccc(F)cc2)c1 | 11.9 |
| Cc1ccc(-c2nnc3sc(-c4ccncc4)nn23)cc1 | -9.21 |
| COc1ccc([C@H]2CC(=O)C=C(c3ccccc3C(F)(F)F)C2)cc1 | 10.1 |
| Cc1nn(-c2ccccc2)c(Cl)c1C(=O)Nc1nnc(C2CCCC2)s1 | 3.92 |
| O=C1NC(Nc2nc3ccccc3s2)(C(F)(F)F)C(=O)N1C1CCCCC1 (stereo not drawn) | -5.08 |
| CC(OC(=O)c1cccc([N+](=O)[O-])c1)C(=O)N1CCc2ccccc21 (stereo not drawn) | -10.2 |
| Cc1nn(C)cc1/C=C1\CCC/C(=C\c2cn(C)nc2C)C1=O | 13.3 |
| O=C(O)CC12CC3CC(C1)CC(n1ncc(NCc4ccc5c(c4)OCO5)c(Cl)c1=O)(C3)C2 | 13.4 |
| C/C(CC(=O)NC(C)(C)C)=N\NC(=O)c1ccccc1N | 10.5 |
| CCOCCCNC(=O)c1c(N)n(-c2ccc(S(N)(=O)=O)cc2)c2nc3ccccc3nc12 | 14.1 |
| NC(=O)c1ncc(C(F)(F)F)cc1Oc1ccc(F)cc1 | 9.89 |
| COc1ccc(C(=O)O)cc1NCc1cccnc1 | 18.4 |
| CC(C)NS(=O)(=O)c1ccc(OCC(=O)Nc2cccc3ccccc23)cc1 | 6.78 |
| COc1cc(/C=N/Nc2ccc(Cl)c(C(=O)O)c2)ccc1OCC(=O)N1C(C)CCCC1C (stereo not drawn) | 11.5 |
| CCOC(=O)c1c(-c2ccc(C)cc2)csc1NC(=O)c1ccc(N2C(=O)CCC2=O)cc1 | 2.61 |
| CNC(=O)c1ccc(Nc2nnc(C)c3ccccc23)cc1 | 12.1 |
| CCN(CC)S(=O)(=O)c1ccc(NC(=O)C2CCCN(C(=O)c3ccc(Cl)cc3)C2)cc1 (stereo not drawn) | 8.79 |
| CCc1sc(C(=O)NCc2ccccc2)cc1C | 10.7 |
| O=C(N/N=C/c1ccc(-c2ccc(Cl)c(C(=O)O)c2)o1)c1cc2c(ccc3ccccc32)o1 | 13.2 |
| O=C(NC(=S)Nc1ccc(CN2CCCCC2)cc1)c1cccc(OCc2ccccc2)c1 | 5.86 |
| CC(=O)Nc1ccc(S(=O)(=O)Oc2ccc(/C=C3\SC(N)=NC3=O)cc2)cc1 | 14.4 |
| Cc1ccc([N+](=O)[O-])cc1NC(=O)CN1CCCCC1 | 5.47 |
| CCc1cc2c(Sc3nc4ccccc4s3)ncnc2s1 | 12.7 |

| Structure (SMILES) | hERG current change (%, negative = inhibition) at 1uM [%] |
| --- | --- |
| O=C(CN1c2cccc3cccc(c23)S1(=O)=O)Nc1ccc(S(=O)(=O)N2CCOCC2)cc1 | 13.3 |
| COCc1nnc(NC(=O)CSc2ccc(C)cc2)s1 | 11.7 |
| CCOC(=O)C1(Cc2cccc(OC)c2)CCN(Cc2ccon2)CC1 | 11.3 |
| CCOc1ccc(C(=O)NCCC(=O)NCCCC(=O)O)cc1 | 3.78 |
| COc1ccccc1NC(=S)N(Cc1ccco1)Cc1cc2cc(C)ccc2[nH]c1=O | 6.49 |
| COc1cccc(CN2CCCCC2c2cccnc2)c1 (stereo not drawn) | 4.38 |
| CCOc1ccc(N2CC(C(=O)NCCc3c[nH]c4ccc(C)cc34)CC2=O)cc1 (stereo not drawn) | 2.56 |
| Cc1ccc(C(=O)N/C(=C/c2cccs2)C(=O)NCCCn2ccnc2)cc1 | -50 |
| COc1ccccc1NC(=O)CCc1nc(-c2ccccc2F)no1 | 9.19 |
| Nc1nonc1-n1nnc(C(=O)N/N=C/c2cc(Br)ccc2O)c1CNc1ccccc1 | 13.2 |
| CN(C)c1ccc(-n2cccc2/C=C2/SC(=Nc3ccc(F)cc3)NC2=O)cc1 | 9.67 |
| COc1cccc(C(=O)NC(=S)Nc2ccc3oc(=O)ccc3c2)c1 | 3.99 |
| S=C(Nc1ccc2c(c1)OCO2)Nc1ccccc1Cl | 11.4 |
| N#Cc1nc(-c2cccc(Cl)c2)oc1NCc1cccnc1 | -3.83 |
| CCOC(=O)CSc1nnc(CNC(=O)c2ccco2)n1C | 11.7 |
| N#CC(C#N)=Cc1cccnc1 | 7.45 |
| CC(Oc1ccc(Cl)cc1Cl)c1ccnc(N)n1 (stereo not drawn) | 16.2 |
| CC1=CC(c2ccccc2)n2nc(NC(=O)CCCC(=O)O)nc2N1 (stereo not drawn) | 21.3 |
| CCC(SC1=NCCS1)C(=O)Nc1ccc(S(N)(=O)=O)cc1 (stereo not drawn) | -0.444 |
| CCN(CC)C(=O)c1[nH]cnc1C(=O)Nc1ccc(C)cc1 | 16.5 |
| O=C(CSc1ncn[nH]1)Nc1ccc2c(c1)CCC2 | 0.58 |
| COc1ccc(C(=O)NC2CCN(C(=S)Nc3ccccc3C)CC2)cc1 | 9.62 |
